# Experimental data published in the supplement of paper PMC11417369.
# Some of the results follow.
# Test system: PfSIP2 AP2 domain 1 (GST-tagged)
# Experiment: gcPBM binding intensity (ln(normalized median fluorescence intensity)); higher = stronger DNA binding
# How it was run: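 For binding intensity, the highest Masliner-normalised natural-log median intensity across replicate spots of either probe orientation was taken. Protein bound to the array was stained with Alexa488 anti-GST antibody and scanned at 488 nm. The protein, GST-tagged P. falciparum DNA-binding domains from E. coli at about 25 μg on average, had been applied for 1 h to an Agilent 4 × 180k array of primer-extended double-stranded 36-bp intergenic genomic probes and negative controls.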
row,Sequence,gcPBM binding intensity (ln)
1,TGCCATATATATATTAAATACATAATAATGAGCCTA [GTGCAC_negctrl_site10],6.96
2,AGTCATAAATTTATTTGTACATATAATATATATATA [XGTACX_site8489],8.66
3,ATAAACAAAAAAAAAAAATATATCAATATATATATA [CACACA_negctrl_site299],8.82
4,AAAATATATAATTTTTAACACACAAAAAAAAAAAAA [CACACA_site9192],6.95
5,ATGTTATATTTTTTTATACACACTGGGATATATAAA [CACACA_site6244],7.11
6,TTCATTGTGTTAACGGTGCATATATTTTTTCACCGT [GTGCAC_site9464],10.3
7,ATATTAAAAAAATATGCATGCAAATATTATTTTGTA [TGCATGCA_site191],6.85
8,TAAAAATATAAAAAGTGTACAATATATAAATTAATA [XGTACX_site1606],6.88
9,AATCAAATTTTCAAGTCGCACCAAACAAAAAAATGA [CACACA_negctrl_site1397],9.09
10,TTTTTCTTTTTTTTTTTAATAATATATAACAAATTT [CACACA_negctrl_site1724],6.81
11,TATTTAATTAATATAATATTAAACGGAAAAGATAAA [TGCATGCA_negctrl_site148],7.22
12,AATGTGTAGGTAAGATAATTTTTGTTTTTTTATTTG [CACACA_negctrl_site424],6.69
13,ATATTTATAATATAGAGTACTTACTAAGTTATGGGT [XGTACX_site5405],7.21
14,TTAAACTTGAAACACACACACACACCCATATAAAAA [CACACA_site758],6.99
15,AAATTTTCTTAAGGTTGTACTTTTTGAAAATAATCT [XGTACX_site4894],6.94
16,TTTTTATATATATGTATAAATATTTTTTCTATTTAT [XGTACX_negctrl_site606],6.66
17,TGTAGTCTGGAGAAACGTACATAGTATCTGGTAGCT [XGTACX_site2538],6.84
18,GAATTTCAACAAAGTAGTACATTTTATAGTAATTGG [XGTACX_site2319],6.81
19,ATAAATATGTTCTGCACACAAATAAGTGTTTGAAGT [CACACA_site3892],7.27
20,TAATGGAATAAAAATTGTACATATTTTTTTTTTTTT [XGTACX_site7669],7.02
21,TTTTTTTCTCTCTCTACACACAAGGTTTAATTTAAA [CACACA_site1690],7.1
22,TATAATATATCTGTAACACACAAAAGTTATATACTT [CACACA_site5578],6.93

row,Sequence,gcPBM binding intensity (ln)
1,AACTCACGAGGACACACACACATATATATATATATA [CACACA_site4711],9.27
2,ACATACATACATACATACATACATACATACATACAT [XGTACX_negctrl_site315],8.34
3,TCATAGGGGTAGAAGGTGCAATAAAAAAGAAGAAAA,10.7
4,ATTGCGTGATAATAATGTACAAAAAGTAATTTATAT [XGTACX_site8339],6.95
5,TCATTCTAAATATAAACACACATAAATATATACATT [CACACA_site3354],6.93
6,AATATATAATTTTTAACACACAAAAAAAAAAAAAAT [CACACA_site3581],6.83
7,AAAAAAAAAAAAAAAACACACACATATAATATATTT [CACACA_site8369],7.66
8,GGTACGTATTTCAATGCATGTCCATGTACATATAAA [TGCATGCA_site208],7.25
9,CATACGTTCTAATATATACACACCTGGTATTAATTA [CACACA_site2221],7
10,CTATAATGTTTCTTTCAACACACAAAAAATGAACAC [CACACA_site8438],7.51
11,AAAAAAAAAAAAAAAAGTACAAAAATATATATGCAT [XGTACX_site8392],7.37
12,TATGCACAGAAACACACACACACAACCAAAAAATAA [CACACA_site5425],7.41
13,TTTTTATTTATATGTATACACACTTTAATTAAAAGT [CACACA_site2525],7.36
14,AATAAAAAAAAATGCACACATATATATATATATATA [CACACA_site2421],9.66
15,TGTTATATATAAATTTGTACACATAAATATTTTTAC [XGTACX_site5873],7.13
16,CAGAATATATTCTATACATGCAATAGGAAATGTAGC [TGCATGCA_site110],7.57
17,TTTCTTATTTTTTTCACACACTAAACATTTCAAATG [CACACA_site5259],7.35
18,TCAATAAGATTATAAAGTACTTTTGAAGATATTATA [XGTACX_site7489],6.92
19,AAATATTTAAATATTATGTATGATTATATATATATA [CACACA_negctrl_site590],8.78
20,AAATAAATAAATAAATGTACACATATATATATATAT [XGTACX_site7787],9.36
21,AAAGAGAACATAAGTACACACATGTTCTTTTAGTAA [CACACA_site2824],6.71
22,AAAAAAAAAAAAAAAACACACAAAAGCAAGAAAAAC [CACACA_site3198],7.65
